According to PubChem BioAssay AID488969 (Vanderbilt High Throughput Screening Facility, 2010):
Over roughly 110,000 compounds, “z-score” has its median near -0.1; the highest 2% begin near 2. This is one part of the list. The source made the active and inactive calls.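 The calls were made as follows: active = z-score in the third read window above 3 or below -3; inactive = the rest.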

The compounds below were run against Metabotropic glutamate receptor 8 (Rattus norvegicus) (UniProt P70579) (assay: rat mGluR8 modulators via GIRK flux, primary screen, cell-based, thallium flux, HTS (AID 488969)). Settings: HEK293 rat mGluR8, GIRK (G protein-gated inwardly rectifying potassium channel) thallium flux, FluoZin2; at 10 µM; stronger effect = higher value; submaximal glutamate (EC20) added with thallium.
UniProt P70579, sequence (P70579 whole entry, looked up): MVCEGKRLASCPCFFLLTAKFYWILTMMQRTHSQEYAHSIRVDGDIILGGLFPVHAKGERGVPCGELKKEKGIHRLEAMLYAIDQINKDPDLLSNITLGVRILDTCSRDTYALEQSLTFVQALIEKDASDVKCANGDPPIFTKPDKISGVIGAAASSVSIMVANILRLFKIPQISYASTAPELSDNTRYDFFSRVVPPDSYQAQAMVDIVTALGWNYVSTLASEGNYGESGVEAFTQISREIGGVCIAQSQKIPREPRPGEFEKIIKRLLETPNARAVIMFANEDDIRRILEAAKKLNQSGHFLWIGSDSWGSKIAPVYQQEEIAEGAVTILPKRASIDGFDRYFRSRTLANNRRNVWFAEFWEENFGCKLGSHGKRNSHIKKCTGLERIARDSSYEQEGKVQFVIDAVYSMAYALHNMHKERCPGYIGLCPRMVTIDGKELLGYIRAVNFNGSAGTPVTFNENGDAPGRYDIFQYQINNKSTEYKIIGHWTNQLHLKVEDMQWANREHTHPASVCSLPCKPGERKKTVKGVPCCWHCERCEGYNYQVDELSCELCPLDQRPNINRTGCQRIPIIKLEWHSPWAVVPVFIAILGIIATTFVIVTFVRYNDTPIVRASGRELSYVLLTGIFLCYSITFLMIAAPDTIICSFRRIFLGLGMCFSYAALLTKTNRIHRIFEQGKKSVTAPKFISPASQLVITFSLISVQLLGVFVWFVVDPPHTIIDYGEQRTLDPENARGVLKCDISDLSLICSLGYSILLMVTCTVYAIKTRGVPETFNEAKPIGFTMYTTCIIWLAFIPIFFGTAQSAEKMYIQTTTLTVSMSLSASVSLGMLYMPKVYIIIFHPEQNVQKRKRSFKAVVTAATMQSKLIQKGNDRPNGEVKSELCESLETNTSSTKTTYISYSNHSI

SMILES | z-score
CCCCONc1ncnc2nonc12 | -0.0533
COc1cccc(-n2c(Cc3cc(=O)[nH]c(=O)[nH]3)nnc2SCC(=O)NC2CCCC2)c1 | -0.174
Cc1ccc(NC(=O)C2CCN(C(=O)NC3CCCCC3)CC2)c(C)c1 | -0.299
COc1cc(/C=C(\C#N)c2ccccn2)ccc1OCc1ccccc1 | -0.538
O=C(CCCNS(=O)(=O)c1cccc2nsnc12)NCc1ccccc1 | -0.246
Cc1cc(NC(=O)CSc2nnc(COc3ccccc3)o2)no1 | -0.183
CCOC(=O)c1c(NC(=O)Cn2cc([N+](=O)[O-])cn2)sc2c1CCC2 | -0.237
COc1ccc(C(F)(F)F)cc1N/C=C\c1nnnn1-c1ccccc1 | -0.227
O=C(O)CSC1c2ccccc2C(=O)N1c1ccccc1 (stereo unspecified) | -0.372
COc1ccc(C2CC3(CC(C)(C)NC(=O)N3)Oc3cc(O)ccc32)cc1 (stereo unspecified) | -0.213
CC1(C)NC(=O)N(CC(=O)O)C1=O | -0.182
CC(=O)c1ccc(NC(=O)N2CCN(c3cccc(Cl)c3)CC2)cc1 | -0.649
Cc1ccc(OCC(=O)NNC(=O)CCC(=O)Nc2ccc(C)cc2C)cc1 | -0.223
COc1cnc(-c2ccccn2)nc1Oc1ccc(Cl)c2ccccc12 | 0.173
CC(C)(C)c1ccc(C(=O)NNC(=O)C(=O)N2CCCCC2)cc1 | 0.478
Cc1c(-c2c(C#N)c(N)nc3c2CCCCCC3)cnn1C | 0.297
COc1ccc(C(=S)Nc2ccccc2)cc1 | -0.78
CCOc1cccc(C2c3c(oc4cc(C)c(C)cc4c3=O)C(=O)N2CCCN(C)C)c1 (stereo unspecified) | -0.527
O=C(CSc1ccccn1)N1CCN(c2ccc(Cl)cc2)CC1 | -0.69
COc1ccc(/C=C2\SC(=O)N(CCNC(=O)Cc3coc4cc(C)ccc34)C2=O)cc1OC | -0.439
CCOC(=O)c1nn(-c2ccc(OCC)cc2)c(C)c1C(C)=O | 0.0801
Cc1ccc(NC(=O)CSc2nccn2Cc2ccccc2)cc1C | -0.465
O=C1C2C3C=CC(CC3)C2C(=O)N1/N=C/c1ccc(O)cc1 (stereo unspecified) | 0.154

SMILES | z-score
O=C(O)c1ccc(S(=O)(=O)NC2CCCc3ccccc32)cc1 (stereo unspecified) | 0.205
COC(=O)c1ccc(OCCOc2ccc(C(=O)OC)cc2)cc1 | 0.0695
Fc1cc(F)c2nc(Nc3nc4c(F)cccc4s3)sc2c1 | active: 9.18
Fc1ccc(C2C3=C(Nc4ncnn42)c2ccccc2OC3c2ccncc2)cc1 (stereo unspecified) | -0.692
CN1CCc2c(C#N)c(N3CCCCC3)nc(NCc3ccccc3)c2C1 | -0.559
CN(C)c1ccc(NC(=O)N2CCOCC2)cc1 | -0.0524
COC(=O)CNc1c(-c2ccccn2)nc2ccc(Br)cn12 | -0.134
COc1cc2[nH]c(=O)n(CCC(=O)N3CCc4ccccc4C3)c(=O)c2cc1OC | 1.38
Cc1cccnc1NC(=O)C1CCN(S(=O)(=O)c2c(C)noc2/C=C/c2ccco2)CC1 | -0.314
CC(C)CC(NC(=O)C1CCC(C)CC1)C(=O)NCc1cccnc1 (stereo unspecified) | -0.402
CCn1c(O)c(N=NC(=O)CNc2cccc(C)c2)c2ccccc21 | 1.4
Cc1ccc(OCCNC(=O)c2ccccc2N)cc1 | -1.75
CC(C)c1ccc(NC(=O)COC(=O)[C@H](CCC(N)=O)NC(=O)c2ccc(F)cc2)cc1 | -0.441
O=C(CCC(=O)N1CCN(C2CCCC2)CC1)Nc1nnc(C(F)(F)F)s1 | -0.0144
CCOc1ccc(CN2CCNC(=O)C2CC(=O)OC)cc1 (stereo unspecified) | -0.257
O=C(CCCn1c(=S)[nH]c2ccsc2c1=O)NCc1ccco1 | -0.0898
Cc1nc(-c2cccnc2)sc1C(=O)Nc1ccc(F)cc1F | -0.515
COc1ccc(C(=O)OCCNC(=O)c2c(Cl)nc3ccccn23)cc1 | -1.08
Cc1ccc(C(=O)OCC(=O)Nc2ccc(N(C)C)cc2)cc1NC(=O)c1ccco1 | -0.348
c1ccc(COc2ccc(CNCc3cccs3)cc2)cc1 | 0.222
COc1ccccc1Oc1coc2c(CN3CCN(C)CC3)c(O)ccc2c1=O | 0.224
c1ccc(Cn2nnnc2CN2CCN(Cc3ccc4c(c3)OCO4)CC2)cc1 | -0.89
Fc1cccc(Cn2cc(C(=S)N3CCCCC3)c3ccccc32)c1 | -0.185

SMILES | z-score
Cc1nn(CCO)c2c1C(=O)CCC2 | 0.148
Cc1c(NC(=O)c2ccc3c(c2)OCO3)cccc1-c1nc2ncccc2o1 | -0.533
CCOC(=O)N1CCN(C(=O)COc2ccc(S(=O)(=O)NC3CCCCC3)cc2C)CC1 | -0.335
COC(=O)COc1ccc(S(=O)(=O)Nc2ccccc2SC)cc1 | -0.655
COC(=O)/C(=C\Nc1ccc(Cl)cc1Cl)NC(=O)c1ccccc1 | -0.0888
Cc1ccc(NC(=O)/C=C/c2ccc([N+](=O)[O-])s2)c(C)c1 | -0.186
COc1ccc(S(=O)(=O)N(C)CC(=O)NC2CCCCC2)cc1OC | 0.13
COc1ccc(OC)c(NC(=O)CNC(=O)Cn2c(C)cc3ccccc3c2=O)c1 | 0.412
Clc1ccc(CN(CC2CCCO2)C(c2cccs2)c2nnnn2C2CCCC2)cc1 (stereo unspecified) | -0.908
COc1ccc(-c2cn(-c3ccc(C)cc3)c(=O)n2CC(=O)Nc2ccc(OC)c(OC)c2)cc1 | -0.529
COC(=O)c1oc2ccc(Cl)cc2c1-n1cccc1 | -0.217
CC(C)(C)C(=O)Nc1nc(-c2ccccc2)ns1 | -0.358
C[C@@H](C(=O)NCc1ccccc1)N1C(=O)C2CC=CCC2C1=O (stereo partly specified) | 0.0335
C/C(=C\C(=O)c1ccc(F)cc1)Nc1ccc(N2CCOCC2)cc1 | 0.159
O=C(CCN1C(=O)C2C3C=CC(C3)C2C1=O)Nc1ccccc1F (stereo unspecified) | 0.166
O=C(Oc1ccc(C(=S)N2CCOCC2)cc1Br)c1cc(Cl)ccc1Cl | 0.018
COc1ccc(CN2C(=O)CN=C2Nc2ccc(C)cc2C)cc1 | -0.413
O=C1C(=O)N(O)C2CCCCC2N1O (stereo unspecified) | -0.199
CCOC(=O)c1c(C)n(C)c2ccc(O)c(CN(CC)CC)c12 | -2.05
COCCn1c(C)cc(C(=O)CSc2nc3ccccc3c(=O)[nH]2)c1C | -0.655
CCOc1cc2[nH]c(=O)n(CCCCCC(=O)NCc3ccco3)c(=O)c2cc1OCC | -0.547
COc1cc(SC)ccc1C(=O)NCCc1ccccc1 | -0.226
COc1cc2[nH]c(=O)n(CCC(=O)N3CCN(c4cccc(C)c4C)CC3)c(=O)c2cc1OC | -0.719

SMILES | z-score
Cc1c(/C=C(\C#N)c2nn(-c3ccccc3)c(N)c2C#N)c2ccccc2n1Cc1ccc(F)cc1 | -0.163
S=C(NCC1CCCO1)n1nnc2ccccc21 (stereo unspecified) | -0.00788
Cc1ccccc1NC(=S)NC(NC(=O)C(C)(C)C)C(Cl)(Cl)Cl (stereo unspecified) | -0.0313
Nc1nc(C(=O)N2CCOCC2)nn1S(=O)(=O)c1ccccc1 | 0.534
C/C(=N\NC(=O)CC1N=C(Cc2ccccc2)NNC1=O)c1ccccc1 (stereo unspecified) | 0.263
Cc1ccccc1OCc1nc2ccccc2c(=O)n1NC(=O)c1ccco1 | 0.652
Cc1nc([N+](=O)[O-])c(Sc2nc3ccccc3[nH]2)n1Cc1ccccc1 | -0.0581
COC(=O)c1ccc(C2C(C(C)=O)=C(C)Nc3ncnn32)cc1 (stereo unspecified) | 1.05
COc1ccc(C2NC(c3ccc(OC)cc3)C(c3ccccc3)C(=O)C2c2ccccc2)cc1 (stereo unspecified) | -0.191
Cc1ccc(OCC(=O)N2CCCc3ccccc32)cc1 | -0.576
O=C(NC(Nc1ccc(F)cc1)(C(F)(F)F)C(F)(F)F)c1cccnc1 | 0.47
COC(=O)C1=C(CSc2nncn2C)NC(=O)NC1c1cc(C)ccc1C (stereo unspecified) | -0.757
CC1(C)CC(=O)C2=C(C1)N(Cc1ccco1)C(=O)C2(NC(=O)c1ccc(Cl)cc1Cl)C(F)(F)F (stereo unspecified) | -0.289
CC(C)(C)NC(=O)COC(=O)c1ccccc1Nc1ccc(SC(F)F)cc1 | -0.243
O=C(COC(=O)Cc1ccc2c(c1)OCCO2)Nc1ccc(S(=O)(=O)N2CCCC2)cc1 | -0.144
Cc1nnc(NC2=NCCC2)s1 | 0.619
CCOC(=O)CN(C(=O)CNC(=O)c1cccs1)C(C(=O)NC1CCCCC1)c1cccs1 (stereo unspecified) | -0.187
Cn1nc(-c2ccccc2F)c2cc(C(=O)Nc3ccc4c(c3)OCCO4)sc21 | -0.17
Cc1ccc(-n2ncc3c(NCc4ccccc4)ncnc32)cc1 | -0.114
O=C(COc1ccc(Cl)cc1)NCc1nnc(SCC(=O)N2CCCCC2)o1 | 0.791
O=C(NCCSc1ccccc1)c1cccnc1 | 0.204
Cc1ccc(C2NC(=S)NC3=C2C(=O)CC(C)(C)C3)cc1 (stereo unspecified) | -0.209
C/C(=N/NC(=O)c1cn(-c2cccc(C)n2)cn1)c1ccc(C)cc1 | 1.18

SMILES | z-score
O=C(/C=C/c1ccco1)NC(=S)NNC(=O)c1ccco1 | 1.53
Cc1cc(C)c2nc(Cl)c(CN(Cc3ccco3)C(=O)Nc3ccccc3C)cc2c1 | -0.885
Cc1cccc(-n2c(C)cc(/C=C3/C(=N)N4C(c5ccccc5)=CSC4=NC3=O)c2C)c1 | 0.612
CCOC(=O)c1c(-c2ccc(C)cc2)csc1NC(=O)CCN1CC(C)OC(C)C1 (stereo unspecified) | 0.589
COC(=O)c1cc(NC(=O)CC2NCCNC2=O)cc(C(=O)OC)c1 (stereo unspecified) | 0.176
Cc1occc1C(=O)NCc1ccc2c(c1)OCO2 | -0.3
COC(=O)c1ccc(OCC(=O)NC(C)(C)C)cc1 | 0.212
O=C(Cn1c(C(F)(F)F)nc2ccccc21)Nc1ccccc1N1CCOCC1 | -0.26
CCC(C)NS(=O)(=O)c1ccc(NC(=O)c2ccc([N+](=O)[O-])cc2Cl)cc1 (stereo unspecified) | 0.0866
CC(OC(=O)Cn1c(C(F)(F)F)nc2ccccc21)C(N)=O (stereo unspecified) | -0.166
O=S(=O)(c1cc(Cl)ccc1Cl)N1CCN(Cc2ccc3c(c2)OCO3)CC1 | -0.0702
Cc1sc2ncnc(N/N=C/c3ccccc3O)c2c1C | -0.215
CC(C)CSc1nnc(N)s1 | 0.107
COc1ccccc1/C=C/C(=O)N1CCC(c2ccccc2)C1 (stereo unspecified) | -0.00988
C=CCN(CC=C)CC(=O)Nc1ccc(S(N)(=O)=O)cc1 | 0.0227
COc1cc(C)nc(NCc2ccccc2)n1 | 0.0516
O=c1[nH]c(SCc2ccccc2)nnc1-c1ccccc1 | -0.0537
Clc1ccc(CN2CCCCCCC2)cc1 | 0.0189
Cc1cc(C)cc(OCc2nnc(SCC(=O)c3ccc(Br)cc3)o2)c1 | 0.367
